{
  "source": "the antibiotic and cytotoxicity screens of Wong et al. (2023)",
  "key": {"HSkMC": {"tested_on": "HSkMC", "experiment": "cytotoxicity call (relative viability < 0.9)", "conditions": "10 µM"}, "HepG2": {"tested_on": "HepG2", "experiment": "cytotoxicity call (relative viability < 0.9)", "conditions": "10 µM"}, "S. aureus RN4220": {"tested_on": "S. aureus RN4220", "experiment": "growth inhibition call (relative growth <= 0.2)", "conditions": "50 µM"}},
  "note": "Some of the results follow.",
  "data": [
    {"smiles": "Cc1ccc(OCCn2c(CC(C)(C)C)nc3ccccc32)cc1", "values": [
      {"measurement": "cytotoxicity call", "setting": "HSkMC", "value": "inactive"},
      {"measurement": "cytotoxicity call", "setting": "HepG2", "value": "inactive"},
      {"measurement": "growth inhibition call", "setting": "S. aureus RN4220", "value": "inactive"}
    ]},
    {"smiles": "C[C@@H]1CN([C@H](C)CO)C(=O)c2cc(NC(=O)Nc3ccc(C(F)(F)F)cc3)ccc2O[C@@H](C)CCCCO[C@H]1CN(C)C(=O)Nc1ccc(C(F)(F)F)cc1", "values": [
      {"measurement": "cytotoxicity call", "setting": "HSkMC", "value": "inactive"},
      {"measurement": "cytotoxicity call", "setting": "HepG2", "value": "active"},
      {"measurement": "growth inhibition call", "setting": "S. aureus RN4220", "value": "inactive"}
    ]},
    {"smiles": "O=C(OC1Cc2c(O)cc(O)cc2OC1c1cc(O)c(O)c(O)c1-c1c(C2Oc3cc(O)cc(O)c3CC2OC(=O)c2cc(O)c(O)c(O)c2)cc(O)c(O)c1O)c1cc(O)c(O)c(O)c1", "note": "(configuration not stated)", "values": [
      {"measurement": "cytotoxicity call", "setting": "HSkMC", "value": "inactive"},
      {"measurement": "cytotoxicity call", "setting": "HepG2", "value": "inactive"},
      {"measurement": "growth inhibition call", "setting": "S. aureus RN4220", "value": "inactive"}
    ]},
    {"smiles": "O=C1CNC(=O)N1C1CCNCC1", "values": [
      {"measurement": "cytotoxicity call", "setting": "HSkMC", "value": "inactive"},
      {"measurement": "cytotoxicity call", "setting": "HepG2", "value": "inactive"},
      {"measurement": "growth inhibition call", "setting": "S. aureus RN4220", "value": "inactive"}
    ]},
    {"smiles": "CC(C)CC#Cc1ccc2c(c1)O[C@@H](CN(C)CC1CCOCC1)[C@@H](C)CN([C@@H](C)CO)S2(=O)=O", "values": [
      {"measurement": "cytotoxicity call", "setting": "HSkMC", "value": "inactive"},
      {"measurement": "cytotoxicity call", "setting": "HepG2", "value": "inactive"},
      {"measurement": "growth inhibition call", "setting": "S. aureus RN4220", "value": "inactive"}
    ]},
    {"smiles": "C[C@H](CO)N1C[C@H](C)[C@H](CN(C)C(=O)Nc2ccc(F)cc2)Oc2cc(C#CC3(O)CCCC3)ccc2S1(=O)=O", "values": [
      {"measurement": "cytotoxicity call", "setting": "HSkMC", "value": "inactive"},
      {"measurement": "cytotoxicity call", "setting": "HepG2", "value": "inactive"},
      {"measurement": "growth inhibition call", "setting": "S. aureus RN4220", "value": "inactive"}
    ]},
    {"smiles": "CCCNC(=O)Nc1ccc2c(c1)OC[C@H](C)N(Cc1ccc(-c3ccccn3)cc1)C[C@H](C)[C@@H](OC)CN(C)C2=O", "values": [
      {"measurement": "cytotoxicity call", "setting": "HSkMC", "value": "inactive"},
      {"measurement": "cytotoxicity call", "setting": "HepG2", "value": "inactive"},
      {"measurement": "growth inhibition call", "setting": "S. aureus RN4220", "value": "inactive"}
    ]},
    {"smiles": "COc1cccc(-c2ccc3c(c2)O[C@@H](CN(C)Cc2cncnc2)[C@H](C)CN([C@@H](C)CO)S3(=O)=O)c1", "values": [
      {"measurement": "cytotoxicity call", "setting": "HSkMC", "value": "inactive"},
      {"measurement": "cytotoxicity call", "setting": "HepG2", "value": "inactive"},
      {"measurement": "growth inhibition call", "setting": "S. aureus RN4220", "value": "inactive"}
    ]},
    {"smiles": "COc1ccc(NC(=O)Nc2ccc3c(c2)C(=O)N([C@H](C)CO)C[C@@H](C)[C@@H](CN(C)CC2CCCCC2)O3)cc1", "values": [
      {"measurement": "cytotoxicity call", "setting": "HSkMC (human skeletal muscle cells)", "value": "inactive"},
      {"measurement": "cytotoxicity call", "setting": "HepG2", "value": "inactive"},
      {"measurement": "growth inhibition call", "setting": "S. aureus RN4220", "value": "inactive"}
    ]}
  ]
}
